Out of some 94,000 compounds screened, about 6,200 (6.6%) were called active. The inconclusive results got no clear call from the source; some entries with a clear call stand among them for comparison. Calls come from the whole dose curve; as a rule, active = well fitted inhibition curve with a large enough effect; inconclusive = small, poorly fitted or top-dose-only effect; inactive = flat fitted curve, though single readings scatter. Potencies beside an inconclusive call are fits to weak or partial responses and may not hold up.
Experiment: Cytotoxic Profiling in HEK 293 Cell Line of Diverse Libraries Using Quantitative High-Throughput Screening; note: nearly all actives have a fitted effect of over 60% in size
Details: HEK 293 viability, ATP luminescence (CellTiter-Glo), 48-72 h; series mostly up to 115 µM
Outline: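 Cells seeded first (HEK 293, 250 cells/well), then compound added by pintool. Incubation ran 48 or 72 hr at 37 degree Celsius. CellTiter-Glo was added and luminescence imaged after 10 min at room temperature.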
Potency is the fitted concentration of half-maximal effect; tags give direction and shape of the fitted curve.

Row | Structure (SMILES) | Potency
1 | O=C(CCC1CCN(C(=O)c2ccccc2F)CC1)NCCCc1ccccc1 | inconclusive: 89.1 µM [inhibitor, single point]
2 | Cc1noc2c(NCc3cnccn3)cc(-c3ccc(Cl)cc3)nc12 | inconclusive: 100 µM [inhibitor, partial curve, poor fit]
3 | CC(C)Oc1ccc(C2(C(=O)N3C[C@@H](C)[C@](O)(C4CC4)C3)CCCC2)cc1 | inconclusive: 89.1 µM [inhibitor, single point]
4 | O=C(c1cccc(Cl)c1)N1CCC2(CC1)Cc1ccccc1NC2=O | inconclusive: 79.4 µM [inhibitor, partial curve, poor fit]
5 | C=CCC1(CO)CCCN(CCOc2ccc(C)cc2Cl)C1 (stereo not drawn) | inconclusive: 44.7 µM [inhibitor, partial curve, poor fit]
6 | CCc1nc2c(c(-c3ccc(Cl)cc3)n1)CN(Cc1ccc(C)cc1)CC2 | inconclusive: 22.4 µM [inhibitor, full curve, poor fit]
7 | Cc1ccc(C(=O)N2CCC(n3cc(-c4nc(C(C)C)no4)nn3)CC2)cc1 | inconclusive: 35.5 µM [inhibitor, full curve]
8 | COCCC(=O)N1CCOc2ccc(CN3CCc4ccccc4C3)cc2C1 | inactive
9 | Cc1ccc(Cn2c(C3CCN(C(=O)c4ccc(C(C)(C)C)cc4)CC3)n[nH]c2=O)cc1 | active: 25.1 µM
10 | O=C(Nc1cccc(Cl)c1)N1CCOC(CN(CC2CC2)C(=O)c2cccc(F)c2)C1 (stereo not drawn) | inconclusive: 50.1 µM [inhibitor, partial curve, poor fit]
11 | CCCCCC(=O)N1C[C@@H](C(N)=O)[C@@H]2Oc3ccc(Cl)cc3[C@@H]21 | inconclusive: 79.4 µM [inhibitor, partial curve]
12 | CN(C(=O)c1ccc(F)cc1)C1CCCc2ccccc21 (stereo not drawn) | active: 100 µM
13 | Cc1noc(C)c1S(=O)(=O)N1CCn2ncc(C(=O)Nc3ccc(Cl)cc3Cl)c2C1 | inconclusive: 79.4 µM [inhibitor, partial curve, poor fit]
14 | COc1cccc(-c2cc(-c3c(C)noc3C)cc3c2C(=O)N(C)C3)c1OC | inconclusive: 50.1 µM [inhibitor, partial curve, poor fit]
15 | O=C(c1ccccc1F)N1CCC(n2cc(-c3nc(-c4ccccc4)no3)nn2)CC1 | inconclusive: 56.2 µM [inhibitor, partial curve, poor fit]
16 | O=C(Cc1ccc(N2CCC(NCCc3ccc(C(F)(F)F)cc3)CC2)cc1)NCc1ccccn1 | inconclusive: 56.2 µM [inhibitor, partial curve, poor fit]
17 | CC(C)c1nc2nccc(-c3ccsc3)n2n1 | inconclusive: 89.1 µM [inhibitor, single point]
18 | COCc1ccc2c(c1)c(OC(C)(C)C(=O)NC1CC1)nn2Cc1ccccc1 | inconclusive: 112 µM [inhibitor, single point]
19 | O=C(NCc1cccs1)c1cc(-c2cc(Cl)cc(Cl)c2)c2cccn2n1 | inconclusive: 22.4 µM [inhibitor, full curve, poor fit]
20 | CC(C)CN1C(=O)c2ccccc2C(C(=O)NC(C)C)C12CCCC2 (stereo not drawn) | inconclusive: 50.1 µM [inhibitor, partial curve, poor fit]
21 | COc1nccnc1NC1CCN(C(=O)COc2ccc(C)cc2)CC1 | inactive

Row | Structure (SMILES) | Potency
22 | COc1cccc(C(=O)N2CCN(CCCn3nc4n(c3=O)CCCC4)CC2)c1 | inactive
23 | CCc1ccc(N2CC(c3noc(-c4ccccc4F)n3)CC2=O)cc1 (stereo not drawn) | inconclusive: 89.1 µM [inhibitor, single point]
24 | C=CCC1(CO)CCCN(CC(=O)NCCc2ccc(Cl)cc2)C1 (stereo not drawn) | inconclusive: 50.1 µM [inhibitor, partial curve, poor fit]
25 | CC(C)(C)C(=O)Nc1cc(-c2ccccn2)nn1-c1ccccc1 | inconclusive: 112 µM [inhibitor, partial curve, poor fit]
26 | Cc1cccc(-n2nc(-c3c(C)nc4scc(CC(=O)NCc5ccco5)n4c3=O)cc2C)c1C | inconclusive: 35.5 µM [inhibitor, partial curve, poor fit]
27 | Cc1ccc2nc(COCC(=O)N[C@H]3CC[C@@H]4CCC[C@@H]43)[nH]c2c1 | inconclusive: 79.4 µM [inhibitor, partial curve, poor fit]
28 | Cc1ccc(-c2ccc3nnc(CNC(=O)c4cc(F)ccc4F)n3n2)cc1 | inconclusive: 79.4 µM [inhibitor, partial curve, poor fit]
29 | Cc1ccc(Cl)c(C(=O)N2CCC3(CC2)[C@H](O)C[C@@H]3OCCO)c1 | inactive
30 | COc1ccc(-c2cc(N3CCC(NC(=O)c4ccc(C#N)cc4)C3)n[nH]2)cc1 (stereo not drawn) | inconclusive: 7.94 µM [inhibitor, full curve, poor fit]
31 | COc1ccc2cc(C(=O)N3CCC4(CC3)CC(Cc3nc(C)no3)CCO4)[nH]c2c1 (stereo not drawn) | inconclusive: 50.1 µM [inhibitor, partial curve, poor fit]
32 | CC(C)CNC(=O)N1CCCCCCN(C)C(=O)[C@@H]2CCC[C@@H]21 | inactive
33 | CN(C)CCNC(=O)c1cccc2c1CCN2C(=O)Nc1ccccc1 | inconclusive: 89.1 µM [inhibitor, single point]
34 | Clc1ccc(Nc2cnc3ccc(-c4ccccc4)nn23)nc1 | inconclusive: 79.4 µM [inhibitor, partial curve, poor fit]
35 | COc1ccc(-c2cc(N3CCCN(C(=O)c4ccc5[nH]ccc5c4)CC3)n[nH]2)cc1 | inconclusive: 50.1 µM [inhibitor, partial curve, poor fit]
36 | CC(NC(=O)C1CCN(C(=O)c2ncn3c2COC(c2ccc(F)cc2)C3)CC1)c1ccccc1 (stereo not drawn) | inconclusive: 89.1 µM [inhibitor, single point]
37 | COc1ccc(-c2nc(C(C)C)nc3c2CCN(C(=O)C2CCCC2)CC3)cc1 | inconclusive: 50.1 µM [inhibitor, partial curve, poor fit]
38 | COc1ccc(C2Cn3cnc(C(=O)N4CCC(C(=O)NCc5ccncc5)CC4)c3CO2)cc1 (stereo not drawn) | inactive
39 | Cc1ncoc1C(=O)N1CC(F)(F)C[C@H]1c1nc(C2CC2)no1 | inactive
40 | Cc1noc2c(-c3cccnc3N3CCOCC3)cc(-c3ccccc3)nc12 | inconclusive: 100 µM [inhibitor, partial curve, poor fit]
41 | CC(C)(C)CC(=O)NC[C@H]1O[C@H](Cc2cc(-c3ccc(F)cc3)on2)CC[C@@H]1O | inconclusive: 126 µM [inhibitor, single point]
42 | Clc1ccc(-c2cnc([C@@H]3COCCN3C3CCCCC3)[nH]2)s1 | active: 79.4 µM

Row | Structure (SMILES) | Potency
43 | CCCCCCN(CCC(=O)NCc1ccco1)C(=O)c1ccoc1 | inconclusive: 89.1 µM [inhibitor, single point]
44 | CN1c2cc(C(=O)NC3CCCCC3)ccc2C(=O)N2CCCCC21 (stereo not drawn) | inconclusive: 50.1 µM [inhibitor, partial curve, poor fit]
45 | COCC(=O)NC1CCC12CCN(C(=O)C1CCOCC1)CC2 (stereo not drawn) | inactive
46 | Cc1ccc(C2NC(=O)N(CC(=O)Nc3ccc(F)c(F)c3)C3=C2C(=O)OC3)cc1 (stereo not drawn) | active: 20 µM
47 | COc1cccc(C(=O)N2C[C@H]3CNC(=O)[C@]34CCCC[C@@H]24)c1 | inactive
48 | O=C(O)c1cccc(-c2n[nH]c3c2CC(=O)N(c2ccccc2)C3)c1 | inconclusive: 56.2 µM [inhibitor, single point]
49 | COCCC(=O)N1CCC2(CCC2NC(=O)COC)CC1 (stereo not drawn) | inactive
50 | O=C(NCc1cccnc1)C1CCN(C(=O)c2ccc(-c3cccs3)cc2)CC1 | inconclusive: 50.1 µM [inhibitor, partial curve]
51 | CC(C)(N)C(=O)N1CCCC(N2CCN(c3cccc(C(F)(F)F)c3)CC2)C1 (stereo not drawn) | inconclusive: 79.4 µM [inhibitor, single point]
52 | CN(C)S(=O)(=O)N1CCCC(Cn2c(C3CC3)nc3cccnc32)C1 (stereo not drawn) | inactive
53 | OCC1CN(c2ncccn2)CC12CCN(Cc1cc(Cl)ccc1F)CC2 (stereo not drawn) | inconclusive: 89.1 µM [inhibitor, single point]
54 | O=C(Cn1cccc1-c1nc(-c2ccc3c(c2)OCO3)no1)Nc1cc(F)cc(F)c1 | inconclusive: 89.1 µM [inhibitor, single point]
55 | O=C(NCc1ccccc1)C1(c2ccc(Cl)cc2)CCOCC1 | inactive
56 | COc1cc2nc(C)n(CC(=O)NC3CCCc4c3[nH]c3ccccc43)c(=O)c2cc1OC (stereo not drawn) | inconclusive: 7.94 µM [inhibitor, full curve, poor fit]
57 | COc1cccc(CN2CC[C@@H](CO)N(C)c3cccnc3C2)c1 | inactive
58 | COc1ccc(F)cc1S(=O)(=O)N1CCCC(Cn2c(C)nc3cccnc32)C1 (stereo not drawn) | inconclusive: 56.2 µM [inhibitor, partial curve, poor fit]
59 | CCOc1ccccc1NC(=O)Cn1cccc1-c1nc(-c2ccc(F)cc2)no1 | inconclusive: 22.4 µM [inhibitor, full curve]
60 | CNC(=O)C1=C(OCc2ccccc2)c2ccccc2[S+](=O)([O-])N1c1c(C)cccc1C | inconclusive: 89.1 µM [inhibitor, single point]
61 | CCOc1ccc2c(n1)CCN(C(=O)c1nn(C)c3ccccc13)C2 | inactive
62 | COc1ccc(-c2ccc3c(n2)c(=O)ncn3Cc2ccccc2)cc1OC | inactive
63 | Cc1ncsc1CCC(=O)N(C/C=C/c1ccccc1)CC1CCCO1 (stereo not drawn) | inconclusive: 35.5 µM [inhibitor, partial curve, poor fit]
